# Source: publication PMC4336329 (PLoS ONE, 2015)
# Hit rate of the full screen: of about 310,000 compounds, about 14,000 (4.5%) showed an effect of 50% or more. Effects have a minus sign here. The list shows a part of the results.
# Biological target: human ether-à-go-go-related gene (hERG) potassium channel (human, UniProt Q12809)
# Assay: primary screen, population patch clamp on CHO cells stably expressing hERG
# 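Further: peak tail current of the secondary pulse compared with the same well before compound.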
# Sequence of human ether-à-go-go-related gene (hERG) potassium channel (Q12809 whole entry, looked up): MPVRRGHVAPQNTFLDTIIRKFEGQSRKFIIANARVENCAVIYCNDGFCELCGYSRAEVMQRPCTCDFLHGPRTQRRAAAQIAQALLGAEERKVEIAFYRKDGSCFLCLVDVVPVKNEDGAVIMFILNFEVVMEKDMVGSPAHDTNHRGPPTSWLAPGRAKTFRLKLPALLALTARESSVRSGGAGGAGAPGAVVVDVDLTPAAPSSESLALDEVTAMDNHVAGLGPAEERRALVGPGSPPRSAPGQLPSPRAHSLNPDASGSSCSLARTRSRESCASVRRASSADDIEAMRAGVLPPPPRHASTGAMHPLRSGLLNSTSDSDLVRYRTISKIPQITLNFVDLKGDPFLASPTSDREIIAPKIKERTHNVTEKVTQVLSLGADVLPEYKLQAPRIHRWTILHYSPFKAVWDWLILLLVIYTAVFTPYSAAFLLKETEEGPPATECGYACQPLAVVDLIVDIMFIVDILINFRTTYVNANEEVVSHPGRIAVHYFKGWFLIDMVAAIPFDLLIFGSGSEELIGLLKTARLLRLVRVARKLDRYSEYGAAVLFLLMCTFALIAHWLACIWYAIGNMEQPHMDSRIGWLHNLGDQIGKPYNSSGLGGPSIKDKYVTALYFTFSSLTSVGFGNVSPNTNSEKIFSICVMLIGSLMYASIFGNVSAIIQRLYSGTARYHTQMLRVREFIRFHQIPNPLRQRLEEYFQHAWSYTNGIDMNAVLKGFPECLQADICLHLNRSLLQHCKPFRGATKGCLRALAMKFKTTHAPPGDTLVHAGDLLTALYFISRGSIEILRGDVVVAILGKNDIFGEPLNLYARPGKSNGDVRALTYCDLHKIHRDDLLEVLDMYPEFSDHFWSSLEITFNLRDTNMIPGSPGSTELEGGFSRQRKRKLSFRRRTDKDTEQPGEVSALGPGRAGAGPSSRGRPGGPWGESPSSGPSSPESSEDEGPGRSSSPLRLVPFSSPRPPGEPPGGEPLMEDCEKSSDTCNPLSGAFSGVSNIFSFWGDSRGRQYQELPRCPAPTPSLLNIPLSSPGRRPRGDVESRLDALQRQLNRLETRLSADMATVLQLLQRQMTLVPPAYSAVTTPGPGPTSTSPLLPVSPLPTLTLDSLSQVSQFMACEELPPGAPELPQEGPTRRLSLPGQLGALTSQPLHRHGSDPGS
row,SMILES,"hERG current change (%, negative = inhibition) at 10uM"
1,Cc1ccc(S(=O)(=O)Oc2ccccc2N2C(=O)C3C4CCC(C4)C3C2=O)cc1 (stereo not drawn),-17.5%
2,COc1ccc(N2CCN(c3nc(Cl)nc(N4CCOCC4)n3)CC2)cc1,0.926%
3,CCn1c(C(O)c2cccc(OC)c2OC)nc2ccccc21 (stereo not drawn),-12.2%
4,NC(=O)c1ccc(NC(=O)C2COc3ccccc3O2)cc1 (stereo not drawn),-0.781%
5,Cc1nn(-c2ccccc2)c(C)c1C(=O)NCCc1ccccc1,1.03%
6,COc1cc(NC(=O)c2ccco2)c(OC)cc1NC(=O)Nc1ccc(Cl)cc1,-14.8%
7,O=C(CNC(=O)c1ccco1)OCc1ccc(Cl)cc1,3.86%
8,C=CCn1c(-c2c[nH]c3ccccc23)n[nH]c1=S,15.1%
9,CN(c1ccc(C(=O)NCCSCc2ccco2)cc1)S(C)(=O)=O,-3.16%
10,O=C(NNC(=O)c1cc(-c2ccncc2)nc2ccccc12)c1ccccc1O,-6.5%
11,CCc1ccc(-c2nc(SCC(=O)NC3CC3)n[nH]2)cc1,7.48%
12,Cc1ccc(CN2CCN(Cc3ccco3)CC2)cc1.O=C(O)C(=O)O,-15.5%
13,CC(C)c1nc(C(N)=O)c2[nH]c(=O)n(-c3ccc(F)cc3)c2n1,0.843%
14,COc1ccc(-c2csc(NC(C)c3nc4cc(Cl)c(N5CCCCC5)cc4n3CCCO)n2)cc1 (stereo not drawn),30.5%
15,CCOc1ccc(NC(=O)COc2ccc3c(c2)OCO3)cc1,1.04%
16,C=CCNS(=O)(=O)c1sccc1/C=N/O,-3.2%
17,CCOC(=O)CN1C(=O)C2(OCCCO2)c2ccccc21,-7.58%
18,COc1ccc(Br)cc1S(=O)(=O)NNC(=O)c1c(C)nc2ccccn12,1.39%
19,CCCC[n+]1c(C)sc2ccc(C)cc21.[Cl-],21%

row,SMILES,"hERG current change (%, negative = inhibition) at 10uM"
1,COc1cc(OC)cc(-c2c(C#Cc3ccsc3)c3cc(Br)ccc3n2C)c1,4.51%
2,CC(C)CC1c2[nH]c3ccccc3c2CCN1C(=O)c1cnccn1 (stereo not drawn),3.61%
3,Cc1ccc(C2=Nc3ccccc3N=C(C(Cl)Cl)C2)cc1,-12.6%
4,O=C(NNC(=S)NC(=O)c1ccccc1Cl)c1cccc([N+](=O)[O-])c1,13.9%
5,O=C(CSc1nnnn1-c1ccc(F)cc1F)Nc1ccccc1F,6.25%
6,O=C(CC12CC3CC(CC(C3)C1)C2)NC1CC1,23.2%
7,O=[N+]([O-])c1ccccc1S(=O)(=O)NCCSc1ccccc1,4.87%
8,O=C(NC(Cc1ccccc1)C(=O)O)c1ccc(S(=O)(=O)N2CCCC2)cc1 (stereo not drawn),5.45%
9,CCNC(=O)CC1SC(=Nc2ccccc2C)N(C)C1=O (stereo not drawn),-7.92%
10,O=C(CSc1cn(CC(=O)N2CCCCCC2)c2ccccc12)NCC1CCCO1 (stereo not drawn),-18.8%
11,COc1ccc([C@@H]2[C@@H]3C(=O)N(C(C)(C)C)C(=O)[C@@H]3[C@]3(CC(C)C)C(=O)N(c4cccc(Br)c4)C(=O)N23)cc1,21.3%
12,COCCCn1c(SCC(=O)Nc2ccc(C)cc2)nc2ccccc2c1=O,-2.1%
13,CC(Cc1c[nH]c2ccccc12)C(=O)O (stereo not drawn),5.9%
14,CCCc1cc(=O)oc2cc(C)cc(OC(C)C(=O)NCCCn3ccnc3)c12 (stereo not drawn),-65.3%
15,Cc1cc(C(=O)NC2CCCN(Cc3ccc(Cl)cc3)C2)no1 (stereo not drawn),-34.6%
16,CSc1ccc(CCNC(=O)C2CCCN(S(=O)(=O)N3CCOCC3)C2)cc1 (stereo not drawn),-0.853%
17,COc1cc(CC(=O)OCC(=O)c2ccc3c(c2)OCCO3)cc(OC)c1OC,-58.6%
18,CCCCCC(=O)Nc1c2c(nc3ccccc13)CCC2,-45.7%
19,CC12CCC(C(=O)N3CCCCC3)(CC1=O)C2(C)C (stereo not drawn),17.1%

row,SMILES,"hERG current change (%, negative = inhibition) at 10uM"
1,COc1ccc(C(=O)NCCOc2cccc(Oc3ccccc3)c2)cc1OC,-4.91%
2,CC(=O)N1CC(C)Sc2ccc(S(=O)(=O)NCCc3cccc(C)c3)cc21 (stereo not drawn),0.141%
3,O=S(=O)(c1ccc(OCC(O)CN2CCN(c3ccccc3)CC2)cc1)N1CCOCC1 (stereo not drawn),0.147%
4,O=C(NC(=S)Nc1ccccn1)c1ccc(-c2ccccc2)cc1,15.3%
5,COc1ccc(-n2nc(C(=O)NCC(=O)N3CCN(C)CC3)c3ccccc3c2=O)cc1OC,19%
6,CCOC(=O)c1c(NC(=O)c2nn(C)cc2[N+](=O)[O-])sc(C)c1C,16.5%
7,Cc1cc(C(=O)Nc2ccon2)ccc1[N+](=O)[O-],3.75%
8,Cc1cc(C(=O)COC(=O)c2nc3nccc(C)n3n2)c(C)n1CC1CCCO1 (stereo not drawn),23.4%
9,O=c1nccc(N/N=C/c2cccc(O)c2)[nH]1,28%
10,CC(=O)NC(CC(=O)OCC(=O)N1c2ccccc2NC(=O)C1(C)C)c1ccccc1 (stereo not drawn),0.694%
11,CC1CCCN(CC(O)COc2ccc(-c3ccccc3)cc2)C1 (stereo not drawn),-73.4%
12,C/C(=N\NC(=O)c1n[nH]c2c1CCC2)c1cccs1,12.4%
13,Cc1cccc(C(=O)Nc2ccc3c(c2)CC2(C(=O)N(C)C(=O)N(C)C2=O)C2CCCN32)c1 (stereo not drawn),4.06%
14,CCCC/C(C)=N/NC(=O)C(=O)NCCc1ccccc1,-0.335%
15,CCCc1c(C(=O)OCC)[nH]c2c1C(=O)CCC2,-5.23%
16,CCOC(=O)c1cc2oc(C(c3nnnn3C3CCCCC3)N3CCOCC3)cc2[nH]1 (stereo not drawn),-37.5%
17,CC(C)(C)CNC(=O)c1ccc2c(c1)S(=O)(=O)c1cc(Cl)ccc1C2=O,3.17%
18,Cc1ccc(-c2nc(=S)c3c(n2Cc2cccnc2)CC(C)(C)OC3)cc1,4.89%
19,Cc1ccc(NC(=O)CCC(=O)NNC(=O)c2ccccc2Cl)c(C)c1,7.76%
